# Measured values reported in the supplement of paper PMC11417369.
# The other results are listed elsewhere or left out.
# System: PF3D7_0420300 AP2 domain 1 (GST-tagged)
# Assay: gcPBM binding intensity (ln(normalized median fluorescence intensity)); higher = stronger DNA binding
# How it was run: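 Each value is the highest Masliner-normalised natural-log median intensity across replicate spots of either orientation of a probe. The probes were primer-extended double-stranded 36-bp intergenic genomic sequences on an Agilent 4 × 180k array, alongside negative controls, exposed for 1 h to GST-tagged P. falciparum DNA-binding domains expressed in E. coli. Bound protein was picked up with Alexa488 anti-GST antibody and scanned at 488 nm.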
row,Sequence,gcPBM binding intensity (ln)
1,ATTTATTTATATAATACACACAAATATCTTAATGAA [CACACA_site6064],9.39
2,ATTTTTTCTAATGGGTGTACTGAAACGTATTTTATT [XGTACX_site6573],9.56
3,ATTTGTAATTATTAAACACACACAAAATATATATAA [CACACA_site8804],9.67
4,TTGTGATTATATAATCGTACATAATTTTAATCACAC [XGTACX_site398],9.15
5,AAAAAAAAAAAAAACACACACATATCTATAATATAT [CACACA_site7481],9.86
6,GAATATAAACATATTACACACATCTATATGTACTTT [CACACA_site8582],9.68
7,CAAAACAAAGTTGCCGCACACAGATACGCACCCAAG [CACACA_site3455],9.5
8,TTTATTTAATTCATTGCATGTAATTTTTGTGTCCAC [TGCATGCA_site677],9.21
9,TTTTATGATAATTTTGCACACACTTAGGAAAAATTA [CACACA_site1556],9.31
10,TTAAAAAAAAATGGCACACATTTTAATTTTATGTTT [CACACA_site5035],9.01
11,AGAATAAAAAGGAACACACACACACGCATATAAATA [CACACA_site7659],10.3
12,TTATCATATGTATGCATACACACAAAAAATTATATA [CACACA_site397],9.47
13,CAAACAAATATATGTTGTACTTATTATATATACATA [XGTACX_site2998],9.26
14,ATAAATGAGCCATATTAAATCCGTTACACGGGTGTG [CACACA_negctrl_site1368],9.22
15,AAATTATTTTGTTATCATTATATATAGATTGAATAT [XGTACX_negctrl_site165],9.11
16,AACGGGTAATGCACAAAAAAAAAAAAATAAAATAAA [TGCATGCA_negctrl_site474],9.2
17,TTCTTTTAAATTAGCTGTACGGTTTTCTACATGCAT [XGTACX_site356],9.23
18,AAAAAAAATATGAAAACACACATATATAAATAAATA [CACACA_site113],9.55
19,TAATATATATGTATGGCACACACGGATAAATATATA [CACACA_site930],9.57

row,Sequence,gcPBM binding intensity (ln)
1,CATGCCTTTAAAAAGGTGCAAACATTTTCACAAACA,9.05
2,AACAAAATAAGACACACACACAAATGTACCTATATA [CACACA_site7189],10
3,TCTTTTTTAAATAAAAGTACAAAAAAAAATAAAAAA [XGTACX_site2670],9.07
4,ATATAATTTATGTGCACACACTCCTATTTTTAGCTT [CACACA_site50],9.72
5,AAAAAGTAAAAGAAAGCACACACACCGGTATATATG [CACACA_site9281],10
6,AAAAAAAATTTTATCTGTACACATTTTTTTCTTTTT [XGTACX_site4229],9.35
7,TACAATATATTTATAGTGCATATTACTTTTAACTTT,9.29
8,TCGTAATAATATAAATGTACTTTATTAATTAAAAGA [XGTACX_site3416],8.86
9,GTAGTCCAAAAAAAGCGTACACAGAAAAAAAAAAAA [XGTACX_site4273],9.14
10,ACATTGCACCCGTGCACACATAGAAAAATAATTCTT [CACACA_site409],9.34
11,ATAACAAAAATCCTTGTGCACTATTTTAATAGAGTC,9.33
12,TACATCTTACTACTTATAATATAATATAGTATGAAT [TGCATGCA_negctrl_site8],8.93
13,CATTATGATTAAATATGTACATATTATTATATAAAT [XGTACX_site2477],9.08
14,ATATATATATTATATGCACACTAATAAGACTATTTA [CACACA_site5880],9.22
15,CATAAATACAGTAACACACACAAAAAAATATGAATA [CACACA_site6066],10.1
16,TGTTTTGTTATTTTTATTTATATAAATAAAGCTATA [GTGCAC_negctrl_site88],9.17
17,ATATATATATTTTATTGTACAAAAAAAAAAAAAAAA [XGTACX_site6803],8.74
18,TTGTTATGCATTGGTTGTACATAAGTATAAGTAATT [XGTACX_site5401],9.15
19,ATAGGATTCTCAAAGTGTACTTGTCTACTGTAGTTT [XGTACX_site4202],9.31

row,Sequence,gcPBM binding intensity (ln)
1,TTTGTTTGTAAAATGTTGCACTTTCTTTTGCTGATA,9.28
2,CCATTATACACAATATGTACATATATATAATCATTT [XGTACX_site7942],9.3
3,AAAAAAAAAATATGTACACACATATAAAATACATAA [CACACA_site6869],9.66
4,AATAATAAAATAAAAGTGCATTAATTATAATTCTTT [GTGCAC_site9491],9.24
5,TCTTTCTAAATCTTACAAATTACTAAAATATTTATA [CACACA_negctrl_site87],8.88
6,AATTATAATAATAATAGTACATAAGTATATAAATAA [XGTACX_site2400],9.39
7,TTAAATATTTATATTTGTACACAATCAATCATACAC [XGTACX_site5793],9.29
8,GAGGAAAAAAAAAAAAGTACATTATATAAGAAAATT [XGTACX_site2610],9.37
9,TTGGTTTCTTGTTTTTGTACCCATAATTTGTAATAT [XGTACX_site1248],9.64
10,AAAAAAAAAAAAAAAAGTACAAATTTAAAAATGTGT [XGTACX_site112],9.15
11,TCTTTCTATTAAACATGTACTTGTCTAAAGACATAA [XGTACX_site8564],8.81
12,CGAATAAATATATGTAGTACATGTTGTAGATAATTT [XGTACX_site1218],9.46
13,TATATATATTTAAATTGTACATATATTATTCATATG [XGTACX_site911],9.15
14,AATAATATATATTACTGTACTAATATAAGGGACATC [XGTACX_site3744],9.53
15,TTATTTTCTACAAATTGTACATATTTTTTACTACTC [XGTACX_site1394],9.33
16,TTGTCAAAAATTACACACATAAATGAATAAATAAAT [XGTACX_negctrl_site541],9.57
17,ATTTATGAAAAAAATACATGCATGTCCATATAAATT [TGCATGCA_site505],9.25
18,ACATATATATATATTACACACACACTAATAAAATAA [CACACA_site7920],10.1
19,TTTCAAGAATTATATAAACACACATACATACACCCA [CACACA_site8592],9.65
